B1: PhoQ; a variant is named by its letters at X, in order, P23837 (parent)
chain: MKKLLRLFFPLSLRVRFLLATAAVVLVLSLAYGMVALIGYSVSFDKTTFRLLRGESNLFYTLAKWENNKLHVELPENIDKQSPTMTLIYDENGQLLWAQRDVPWLMKMIQPDWLKSNGFHEIEADVNDTSLLLSGDHSIQQQLQEVREDDDDAEMTHSVAVNVYPATSRMPKLTIVVVDTIPVELKSSYMVWSWFIYVLSANLLLVIPLLWVAAWWSLRPIEALAKEVRELEEHNRELLNPATTRELTSLVRNLNRLLKSERERYDKYRTTLTDLTHSLKTPLXXLQXXLRSLRSEKMSVSDAEPVMLEQISRISQQIGYYLHRASMRGGTLLSRELHPVAPLLDNLTSALNKVYQRKGVNISLDISPEISFVGEQNDFVEVMGNVLDNACKYCLEFVEISARQTDEHLYIVVEDDGPGIPLSKREVIFDRGQRVDTLRPGQGVGLAVAREITEQYEGKIVAGESMLGGARMEVIFGRQHSAPKDE

The other results are listed elsewhere or left out. A value given as a limit tells only on which side of the number the result lay.

Variants of B1 are the subject of the test. Briefly: enrichment ratio after two sorts for PhoP signalling (ratio (wild type AVST 3.29)); higher = more functional. The settings on record: with PhoP (E. coli).
Regarding GYMP, the enrichment ratio is not above 0.25. In the case of PQGF it was not above 0.25. Turning to YEQR, the enrichment ratio was not above 0.25. In the case of IFGR it was not above 0.25; in that of DPFK, not above 0.25. In the case of YTFY it was 0.464; in that of RHYR, not above 0.25; in that of YDFC, not above 0.25. As for MEFE, the enrichment ratio turned out to be 6.04. EQQH: the enrichment ratio was not above 0.25. In the case of HAHG it was not above 0.25; in that of RQSM, not above 0.25.

Regarding RPFP, the enrichment ratio was not above 0.25. As for TIFE, the enrichment ratio was not above 0.25. For the variant RSQE, the enrichment ratio was not above 0.25.

Turning to MKAE, the enrichment ratio is not above 0.25.

For EPMP, the enrichment ratio was not above 0.25. The result for TDKK reads not above 0.25; that for SMKY, not above 0.25. Consider TVSM, for which the enrichment ratio worked out at 37.3. On to FGLY, for which the enrichment ratio was determined as 10.2.

For the variant WDFW, the enrichment ratio was not above 0.25.

On to IVFT, for which the enrichment ratio was not above 0.25.

On to TYLD, for which the enrichment ratio is not above 0.25. Turning to DFYP, the enrichment ratio was not above 0.25. Turning to RVRN, the enrichment ratio was not above 0.25. Turning to GYVY, the enrichment ratio was not above 0.25. As to FIYW, the enrichment ratio is not above 0.25.

For the variant QMFA, the enrichment ratio was not above 0.25. With LTTA, the enrichment ratio is not above 0.25.

MNGN: the enrichment ratio was not above 0.25.

For the variant QDHM, the enrichment ratio is not above 0.25. For NFGT, the enrichment ratio was not above 0.25. As to YHCK, the enrichment ratio is not above 0.25. Turning to DHAV, the enrichment ratio was not above 0.25. The result for DACA reads not above 0.25. The result for LRFM reads not above 0.25; that for STSS, 10.1. For the variant PILR, the enrichment ratio is not above 0.25. Turning to RSSI, the enrichment ratio is not above 0.25. In the case of REPM it was not above 0.25. Consider AFES, for which the enrichment ratio was not above 0.25. Consider NTYD, for which the enrichment ratio is not above 0.25. Consider TVVG, for which the enrichment ratio was not above 0.25. Turning to VLCH, the enrichment ratio was not above 0.25.

For the variant TWCV, the enrichment ratio is not above 0.25.

Turning to HVLI, the enrichment ratio is not above 0.25. The result for LTMM reads 2.28; that for NFQM, not above 0.25; that for TWAQ, not above 0.25. For DAED, the enrichment ratio is not above 0.25. In the case of AQNC it was not above 0.25; in that of IGNC, not above 0.25. The result for NRWE reads not above 0.25; that for EADN, not above 0.25. The result for LSYK reads not above 0.25; that for WYIC, not above 0.25.

As for MIVK, the enrichment ratio was not above 0.25. For the variant VQVI, the enrichment ratio is not above 0.25. In the case of YQGD it was not above 0.25; in that of AAAW, not above 0.25; in that of QMCT, not above 0.25. With FDLQ, the enrichment ratio is not above 0.25. The result for QSKR reads not above 0.25. In the case of WHLI it was not above 0.25; in that of ADRY, not above 0.25; in that of WDRK, not above 0.25. In the case of GTAM it was not above 0.25.

As for RYML, the enrichment ratio is not above 0.25. In the case of FFWG it was not above 0.25; in that of FYQM, not above 0.25. In the case of LYKK, the enrichment ratio is not above 0.25. In the case of SIGA it was 0.433; in that of HWIP, not above 0.25. In the case of RIWG it was not above 0.25; in that of DQYP, not above 0.25; in that of GNIQ, 9.19. As for EAFY, the enrichment ratio was not above 0.25.

In the case of SAQC, the enrichment ratio is not above 0.25.

For MYQK, the enrichment ratio is not above 0.25. In the case of TFGC it was 1.37. Take RYCG: the enrichment ratio was not above 0.25.

In the case of PTNR, the enrichment ratio is not above 0.25.

As to NDEP, the enrichment ratio is not above 0.25. Regarding TVES, the enrichment ratio amounted to 4.64. On to WTNW, for which the enrichment ratio is not above 0.25. DFSP: the enrichment ratio is not above 0.25.

For RRFN, the enrichment ratio was not above 0.25. The result for QAMV reads not above 0.25. Regarding EDCH, the enrichment ratio is not above 0.25. On to WDRQ, for which the enrichment ratio was not above 0.25.

As for HPDC, the enrichment ratio was not above 0.25. For HCTM, the enrichment ratio was not above 0.25. On to SPPH, for which the enrichment ratio is not above 0.25.

Take LDFW: the enrichment ratio was not above 0.25. Consider MPSI, for which the enrichment ratio is not above 0.25. The result for QFMC reads not above 0.25. In the case of DFHP it was not above 0.25. Turning to QRNR, the enrichment ratio is not above 0.25. Take QHIC: the enrichment ratio was not above 0.25.

For the variant VFNA, the enrichment ratio was not above 0.25. The result for KHYT reads not above 0.25; that for HHTN, not above 0.25; that for DCMI, not above 0.25.

In the case of VKEI, the enrichment ratio is not above 0.25. Turning to PSVR, the enrichment ratio is not above 0.25. In the case of YNHL, the enrichment ratio is not above 0.25. In the case of RATT it was not above 0.25. For the variant PYRT, the enrichment ratio is not above 0.25. In the case of GRAK it was not above 0.25; in that of PWQP, not above 0.25; in that of RFRT, not above 0.25. Turning to SWRH, the enrichment ratio is not above 0.25. In the case of SLMD, the enrichment ratio was not above 0.25. The result for KAMM reads not above 0.25; that for ACFP, not above 0.25. In the case of CKMF it was 38.2; in that of VVID, not above 0.25. In the case of QCEP it was not above 0.25.

NPVA: the enrichment ratio was not above 0.25. In the case of HCMP it was not above 0.25. The result for FYVS reads not above 0.25. The result for PELH reads not above 0.25. Take WWSR: the enrichment ratio is not above 0.25. The result for DILQ reads not above 0.25; that for HFLM, not above 0.25; that for KGMA, not above 0.25. Turning to TPSW, the enrichment ratio was not above 0.25. The result for KILR reads not above 0.25; that for FNKR, not above 0.25; that for TVFL, not above 0.25. The result for LGYQ reads 6.12.

Consider TYLT, for which the enrichment ratio amounted to 0.265. In the case of KSKQ it was not above 0.25. In the case of FCAP it was not above 0.25. Turning to ATFW, the enrichment ratio was not above 0.25.

For the variant RHKR, the enrichment ratio was not above 0.25. The result for KKTN reads not above 0.25; that for KYAS, not above 0.25. The result for KCCE reads not above 0.25.

Turning to SPMG, the enrichment ratio was not above 0.25.

With DAQS, the enrichment ratio was not above 0.25. For WYKF, the enrichment ratio was not above 0.25. As for DCQP, the enrichment ratio was not above 0.25. The result for QGHC reads 5.1.

As for KKLR, the enrichment ratio is not above 0.25. In the case of YVYF it was not above 0.25; in that of AKMC, 8.12.

As for MQVL, the enrichment ratio was not above 0.25. The result for EGAY reads not above 0.25. For the variant EPGF, the enrichment ratio is not above 0.25. Regarding VHHH, the enrichment ratio was not above 0.25. In the case of TKYY it was not above 0.25.

The record behind these values is a collection of fitness landscapes (doi:10.1126/science.1257360).
